Where two headings read alike, the source gives them in different places.
What was measured:
[1] = molecular target: T1, human FAP on the surface of CHO-K1 cells (CHO-K1-HuFAP) (human, UniProt Q12884 1-760); test: FACS, CHO-K1-HuFAP cells
T1 construct: whole, on cells; also called CHO cell line overexpressing human FAP; FAP on the surface of CHO-K1-HuFAP cells

[2] = molecular target: T2, human CD40 on the surface of HEK293 cells (HEK293-HuCD40) (human, UniProt P25942 21-277); test: cell-based or functional assay
T2 sequence (P25942 21-277): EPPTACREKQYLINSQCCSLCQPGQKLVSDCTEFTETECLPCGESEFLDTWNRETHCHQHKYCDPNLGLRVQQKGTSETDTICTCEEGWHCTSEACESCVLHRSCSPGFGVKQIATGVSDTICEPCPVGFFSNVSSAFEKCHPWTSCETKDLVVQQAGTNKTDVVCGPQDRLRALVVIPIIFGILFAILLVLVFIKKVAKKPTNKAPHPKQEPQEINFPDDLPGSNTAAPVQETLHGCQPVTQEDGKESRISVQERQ

[3] = molecular target: T3, human 4-1BB on the surface of HEK293 cells (HEK293-Hu4-1BB) (human, UniProt Q07011 24-255); test: FACS, HEK293-Hu4-1BB cells
T3 construct: whole, on cells; also called CD137; cell strain highly expressing human 4-1BB
T3 sequence (Q07011 24-255): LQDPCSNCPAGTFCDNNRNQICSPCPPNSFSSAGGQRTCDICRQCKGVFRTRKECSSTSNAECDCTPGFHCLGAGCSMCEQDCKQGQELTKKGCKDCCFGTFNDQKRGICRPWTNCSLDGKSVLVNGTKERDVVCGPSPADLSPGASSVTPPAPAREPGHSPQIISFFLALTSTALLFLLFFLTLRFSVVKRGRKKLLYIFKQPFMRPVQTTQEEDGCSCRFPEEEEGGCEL

[4] = molecular target: T2, human CD40 on the surface of HEK293 …; test: FACS, HEK293-HuCD40 cells
[5] = molecular target: T3, human 4-1BB on the surface of HEK293 …; test: cell-based or functional assay
[6] = molecular target: T2, human CD40 on the surface of HEK293 …; test: cell-based or functional assay; remark: listed apart in the source
[7] = molecular target: T1, human FAP on the surface of CHO-K1 …; test: FACS, CHO-K1-HuFAP cells; remark: listed apart in the source
[8] = molecular target: T3, human 4-1BB on the surface of HEK293 …; test: FACS, HEK293-Hu4-1BB cells; remark: listed apart in the source
[9] = molecular target: T3, human 4-1BB on the surface of HEK293 …; test: cell-based or functional assay; remark: listed apart in the source
[10] = molecular target: T2, human CD40 on the surface of HEK293 …; test: FACS, HEK293-HuCD40 cells; remark: listed apart in the source

Row | Binder | EC50 [1] | Maximum fluorescence value [1] | CD40/NF-κB reporter (HEK-Blue CD40L), 4-1BB-crosslinked, EC50 [2] | CD40/NF-κB reporter (HEK-Blue CD40L), 4-1BB-crosslinked, Fold change in Emax [2] | CD40/NF-κB reporter (HEK-Blue CD40L), FAP-crosslinked, EC50 [2] | CD40/NF-κB reporter (HEK-Blue CD40L), FAP-crosslinked, Fold change in Emax [2] | CD40/NF-κB reporter (HEK-Blue CD40L), uncrosslinked, Fold change in Emax [2] | EC50 [3] | Maximum fluorescence value [3] | EC50 [4] | Maximum fluorescence value [4] | 4-1BB/NF-κB luciferase reporter, CD40-crosslinked, EC50 [5] | 4-1BB/NF-κB luciferase reporter, CD40-crosslinked, Fold change in Emax [5] | 4-1BB/NF-κB luciferase reporter, FAP-crosslinked, EC50 [5] | 4-1BB/NF-κB luciferase reporter, FAP-crosslinked, Fold change in Emax [5] | 4-1BB/NF-κB luciferase reporter, uncrosslinked, Fold change in Emax [5] | further results
1 | B21326101 (anti-FAP/4-1BB/CD40 trispecific antibody) (other) heavy: QVQLQQSGVEVKKPGASVTVSCRASGYSFADHFIHWVRQAPGQGFQWMGWINPNRGVTHHAQDFQGRVAMTRDMSTDTVYMELTSLRSDDTAVYYCARDASLTARPYYFYGFDVWGQGTLVTVSS[human IgG1 constant region with changes not given here]GGGGSGGGGSQVQLVESGGGLVQPGGSLRLSCSASGFTFSSYAMSWVRQAPGKGLEWVSDINSGGESTFYEDSVKGRFTISRDNAKNTLYLQMNSLRAEDTAVYYCAKHPLTYTIATMNDYDYWGQGTLVTVSSGGGGSGGGGSEVQLVESGGGLVQPGGSLRLSCAASGFTFSRYGMKWVRQAPGKGLEWVSTINSHGDTTYYADSVKGRFTISRDNAKNSLYLQMNSLRAEDTAVYYCLRIDYSDYSSRGQGTLVTVSAA light: DIQMTQSPSSVSASVGDRVTITCRASQGISSWLAWYQQKPGKAPKLLIYAASSLQSGVPSRFSGSGSGTDFTLTISSLQPEDFATYYCQQANSFPPAFGQGTKVEIKRTVAAPSVFIFPPSDEQLKSGTASVVCLLNNFYPREAKVQWKVDNALQSGNSQESVTEQDSKDSTYSLSSTLTLSKADYEKHKVYACEVTHQGLSSPVTKSFNRGEC | 0.72 nM | 65300 | 0.688 nM | 6.01 fold | 0.095 nM | 6.79 fold | 5.06 fold | 0.19 nM | 10800 | 2.55 nM | 62300 | 0.035 nM | 4.53 fold | 0.071 nM | 8.14 fold | 1.05 fold | –
2 | B977703 (anti-FAP/4-1BB/CD40 trispecific antibody) (other) heavy: QVQLQQSGVEVKKPGASVTVSCRASGYSFADHFIHWVRQAPGQGFQWMGWINPNRGVTHHAQDFQGRVAMTRDMSTDTVYMELTSLRSDDTAVYYCARDASLTARPYYFYGFDVWGQGTLVTVSS[human IgG1 constant region with changes not given here]GGGGSGGGGSQVQLVESGGGLVQPGGSLRLSCSASGFTFSSYAMSWVRQAPGKGLEWVSDINSGGESTFYEDSVKGRFTISRDNAKNTLYLQMNSLRAEDTAVYYCAKHPLTYTIATMNDYDYWGQGTLVTVSSGGGGSGGGGSEVQLVESGGGLVQPGGSLRLSCAASGFTFSRYGMKWVRQAPGKGLEWVSTINSHGDTTYYADSVKGRFTISRDNAKNSLYLQMNSLRAEDTAVYYCLRIDYSDYSSRGQGTLVTVSS light: DIQMTQSPSSVSASVGDRVTITCRASQGISSWLAWYQQKPGKAPKLLIYAASSLQSGVPSRFSGSGSGTDFTLTISSLQPEDFATYYCQQANSFPPAFGQGTKVEIKRTVAAPSVFIFPPSDEQLKSGTASVVCLLNNFYPREAKVQWKVDNALQSGNSQESVTEQDSKDSTYSLSSTLTLSKADYEKHKVYACEVTHQGLSSPVTKSFNRGEC | 1.24 nM | 60700 | 1.33 nM | 6.52 fold | 0.19 nM | 8.3 fold | 6.09 fold | 0.402 nM | 10800 | 5.29 nM | 63300 | 0.07 nM | 4.37 fold | 0.173 nM | 7.71 fold | 1.14 fold | CD40/NF-κB reporter (HEK-Blue CD40L), 4-1BB-crosslinked, EC50 [6]: 0.309 nM; CD40/NF-κB reporter (HEK-Blue CD40L), 4-1BB-crosslinked, Fold change in Emax [6]: 8.79 fold; CD40/NF-κB reporter (HEK-Blue CD40L), FAP-crosslinked, EC50 [6]: 0.013 nM; CD40/NF-κB reporter (HEK-Blue CD40L), FAP-crosslinked, Fold change in Emax [6]: 11.7 fold; CD40/NF-κB reporter (HEK-Blue CD40L), uncrosslinked, Fold change in Emax [6]: 8.63 fold; EC50 [7]: 2.23 nM; Maximum fluorescence value [7]: 121000; EC50 [8]: 0.36 nM; Maximum fluorescence value [8]: 8640; 4-1BB/NF-κB luciferase reporter, CD40-crosslinked, Fold change in Emax [9]: 8.23 fold; 4-1BB/NF-κB luciferase reporter, FAP-crosslinked, EC50 [9]: 0.221 nM; 4-1BB/NF-κB luciferase reporter, FAP-crosslinked, Fold change in Emax [9]: 12.7 fold; 4-1BB/NF-κB luciferase reporter, uncrosslinked, Fold change in Emax [9]: 1.53 fold; EC50 [10]: 4.05 nM; Maximum fluorescence value [10]: 79700

From patent EP4674868A1 (Jiangsu Hengrui Pharmaceuticals Co., Ltd., dated 2026)
